In article PMC11995724, “Antibiotic target discovery by integrated phenotypic and activity-based profiling of electrophilic fragments” (Cell chemical biology, 2025):
The whole screen tested about 3,200 compounds, of which about 110 (3.4%) showed an effect of 50% or more. This is one part of the list.

Tested on: T1, V. cholerae SAD30
T1 construct: SAD30
Parameters: species or system S. aureus MSSA476 (TSB) or V. cholerae SAD30 (LB); 384-well bacterial growth screen at 25 uM, OD600 relative to DMSO control
Settings: relative growth, OD600, LB; 25 µM; inhibitor

Row | Structure (SMILES) | % of control remaining [%]
1 | O=C(CCl)c1ccoc1 [10-O09, 2-chloro-1-(furan-3-yl)ethan-1-one] | 123.281
2 | CC(Cl)C(=O)N[C@@H]1CCc2c(C#N)cccc21 (stereo partly drawn) [6-P14, 2-chloro-N-[(1R)-4-cyano-2,3-dihydro-1H-inden-1-yl]propanamide] | 97.0708
3 | C=CC(=O)NCCC1=CCCCCC1 [1-P21, N-[2-(cyclohept-1-en-1-yl)ethyl]prop-2-enamide] | 98.8042
4 | CC(NC(=O)C(C#N)=Cc1ccc(C(F)(F)F)cc1)c1ccccc1 (centres unmarked) [9-L21, 2-cyano-N-(1-phenylethyl)-3-[4-(trifluoromethyl)phenyl]prop-2-enamide] | 84.3644
5 | O=C(CCc1ccccc1)NC1CCN(C(=O)CCl)CC1 [5-L08, N-[1-(2-chloroacetyl)piperidin-4-yl]-3-phenylpropanamide] | 100.704
6 | COc1cc(C=C(C#N)C(N)=O)cc(OC)c1OC [9-K13, 2-cyano-3-(3,4,5-trimethoxyphenyl)prop-2-enamide] | 85.3161
7 | O=C(CCl)Nc1cc(-c2ccc3c(c2)CCC3)nn1-c1ccccc1 [6-J10, 2-chloro-N-[3-(2,3-dihydro-1H-inden-5-yl)-1-phenyl-1H-pyrazol-5-yl]acetamide] | 89.9422
8 | O=C(CCl)NCc1ccc(Cl)c(C(F)(F)F)c1 [7-D22, 2-chloro-N-{[4-chloro-3-(trifluoromethyl)phenyl]methyl}acetamide] | 92.5161
9 | Cc1nn(CC(F)(F)F)c(C)c1C1COCCN1C(=O)CCl (centres unmarked) [5-J13, 2-chloro-1-{3-[3,5-dimethyl-1-(2,2,2-trifluoroethyl)-1H-pyrazol-4-yl]morpholin-4-yl}ethan-1-one] | 96.3329
10 | C=CC(=O)NCC1(S(=O)(=O)CC)CC1 [3-O13, N-{[1-(ethanesulfonyl)cyclopropyl]methyl}prop-2-enamide] | 101.617
11 | C=CC(=O)Nc1cc(C(C)C)ccc1C(C)C [1-I21, N-[2,5-bis(propan-2-yl)phenyl]prop-2-enamide] | 82.3617
12 | Cc1c(C#N)c(NC(=O)CCl)n(Cc2ccco2)c1C [4-D09, 2-chloro-N-{3-cyano-1-[(furan-2-yl)methyl]-4,5-dimethyl-1H-pyrrol-2-yl}acetamide] | 98.1669
13 | C=CC(=O)Nc1sc2c(c1C(N)=O)CCCCC2 [1-F21, 2-(prop-2-enamido)-4H,5H,6H,7H,8H-cyclohepta[b]thiophene-3-carboxamide] | 88.1913
14 | CCOc1ccccc1C=C(C#N)C(=O)Nc1ccc(Cl)cc1 [8-B09, N-(4-chlorophenyl)-2-cyano-3-(2-ethoxyphenyl)prop-2-enamide] | 78.7899
15 | Cc1cccc(NC(=O)NC(=O)CCl)c1C [4-D21, 3-(2-chloroacetyl)-1-(2,3-dimethylphenyl)urea] | 104.033
16 | C=CC(=O)N1CCC(c2nc3ccccc3o2)CC1 [1-N18, 1-[4-(1,3-benzoxazol-2-yl)piperidin-1-yl]prop-2-en-1-one] | 100.098
17 | COc1ccc(C(NC(=O)CCl)C(C)C)cc1 (centres unmarked) [4-A13, 2-chloro-N-[1-(4-methoxyphenyl)-2-methylpropyl]acetamide] | 107.656
18 | COc1ccc(NC(=O)C(C#N)=Cc2cnc3c(C)cccn23)cc1 [9-L03, 2-cyano-N-(4-methoxyphenyl)-3-{8-methylimidazo[1,2-a]pyridin-3-yl}prop-2-enamide] | 95.7852
19 | O=C1C=CC(=O)N1c1ccc(F)cc1 [10-M10, 1-(4-fluorophenyl)-2,5-dihydro-1H-pyrrole-2,5-dione] | 16.8323
20 | C=CC(=O)N1CCn2c(nnc2C2CCCC2)C1 [3-C09, 1-{3-cyclopentyl-5H,6H,7H,8H-[1,2,4]triazolo[4,3-a]pyrazin-7-yl}prop-2-en-1-one] | 106.558
21 | C=CC(=O)N(Cc1cn(C)cn1)[C@H]1CCCc2ccc(C)cc21 [1-J11, N-[(1S)-7-methyl-1,2,3,4-tetrahydronaphthalen-1-yl]-N-[(1-methyl-1H-imidazol-4-yl)methyl]prop-2-enamide] | 84.3049
22 | CN(CC(=O)Nc1cccc(Cl)c1)C(=O)CCl [5-F18, 2-chloro-N-{[(3-chlorophenyl)carbamoyl]methyl}-N-methylacetamide] | 84.0601
23 | CC(Cl)C(=O)NC1(C(=O)Nc2ccccc2)CC1 (centres unmarked) [7-K14, 1-(2-chloropropanamido)-N-phenylcyclopropane-1-carboxamide] | 78.2422
24 | C=CC(=O)N(Cc1cn(C)nc1C)c1ccc2c(c1)OCCO2 [1-P13, N-(2,3-dihydro-1,4-benzodioxin-6-yl)-N-[(1,3-dimethyl-1H-pyrazol-4-yl)methyl]prop-2-enamide] | 97.3094
25 | Cc1cc(CN(Cc2cnn(C)c2)C(=O)CCl)ccc1Cl [5-G12, 2-chloro-N-[(4-chloro-3-methylphenyl)methyl]-N-[(1-methyl-1H-pyrazol-4-yl)methyl]acetamide] | 89.9443
26 | CN(CC(=O)Nc1ccc(Cl)cc1)C(=O)CCl [4-D03, 2-chloro-N-{[(4-chlorophenyl)carbamoyl]methyl}-N-methylacetamide] | 115.419
27 | O=C(CCl)NC(c1ccccc1)C1CCCC1 (centres unmarked) [6-O18, 2-chloro-N-[cyclopentyl(phenyl)methyl]acetamide] | 92.0656
28 | O=C(CCl)N1N=C(c2cccs2)CC1c1cccs1 (centres unmarked) [4-O18, 1-[3,5-bis(thiophen-2-yl)-4,5-dihydro-1H-pyrazol-1-yl]-2-chloroethan-1-one] | 111.624
29 | C=CC(=O)N1CCCC(S(C)(=O)=O)C1 (centres unmarked) [1-J18, 1-(3-methanesulfonylpiperidin-1-yl)prop-2-en-1-one] | 75.0736
